The campaign covered roughly 52,000 compounds. About 1,700 (3.3%) were called active. No stated cut-off is given here; in the data, active means survival mostly below about 52% (no sharp cut-off); inactive means mostly above about 56%. The list shows a part of the results.
System: Wild type
Assay: growth inhibition of S. aureus wild type versus tarO mutant, primary screen, teichoic acid synthesis inhibitors, RN4220, OD600 (AID 463173)
Settings: S. aureus RN4220 wild type/DeltatarO growth, OD600, 18 h, hits give low values, screened at 18.75 µg/mL (by protocol)

Row | Compound | survival
1 | O=C(Nc1ccc(F)c(F)c1)c1cc(S(=O)(=O)NC2CCCC2)ccc1F | inactive: 133%
2 | Cc1cccc(N2CCN(CCCNc3ncnc4onc(-c5ccc(F)cc5)c34)CC2C)c1 (stereo unspecified) | inactive: 71%
3 | O=C(CCNS(=O)(=O)c1ccc2c(c1)CCN2C(=O)C1CC1)Nc1ccc(OC(F)(F)F)cc1 | inactive: 77%
4 | CCOC(=O)c1[nH]c(C)c(CN(C(C)=O)c2ccc(OCC)cc2)c1C | inactive: 94%
5 | COc1cccc(C(=O)Nc2ccc3nc(SCCOc4ccccc4)sc3c2)c1 | inactive: 91%
6 | CCc1ccc2oc(-c3cc(NC(=O)c4cccs4)ccc3Cl)nc2c1 | inactive: 12%
7 | CCC(C)NC(=O)Cn1ccc2cc(S(=O)(=O)N3CCCCCC3)ccc21 (stereo unspecified) | inactive: 133%
8 | COc1cccc2cc(C(=O)Nc3ccc(C)cc3)c(=O)oc12 | inactive: 71%
9 | Cc1ccc(CCNC(=O)c2ccc3c(c2)N(Cc2cccc(F)c2)C(=O)c2ccccc2S3)cc1 | inactive: 71%
10 | Cc1ccc2c(=O)cc(C(=O)Nc3sc4c(c3C(=O)NCc3cccnc3)CCCC4)oc2c1 | inactive: 89%
11 | CCOC(=O)c1ccc(NC(=O)C2=C(C)C(=O)OC23CCN(C(C)C)CC3)cc1 | inactive: 82%
12 | CCc1ccc(CN2CCC(C(=O)N(C)CCc3ccc(OC)c(OC)c3)CC2)cc1 | inactive: 111%
13 | O=C(NCC(c1cccnc1)N1CCc2ccccc21)c1ccc(Cl)cc1 (stereo unspecified) | inactive: 80%
14 | Cc1ccc(-n2ncc(C(=O)NCCN3CCC(Cc4ccccc4)CC3)c2C2CCN(C(=O)OC(C)(C)C)CC2)cc1 | inactive: 120%
15 | Cc1ccc(CN(C(=O)COc2ccc(F)cc2)C2CCS(=O)(=O)C2)o1 (stereo unspecified) | inactive: 90%
16 | Nc1nnc(CCCCn2c(-c3nonc3N)nc3ccccc32)s1 | inactive: 102%
17 | CCn1cc(S(=O)(=O)c2ccccc2)c(=O)c2cc(F)c(F)cc21 | inactive: 82%
18 | COc1ccc(-c2cc(C(F)(F)F)nc(SCC(=O)NC(C)c3ccccc3)n2)cc1 (stereo unspecified) | inactive: 78%
19 | CC(C)CCNC(=O)c1ccc2nc(Cc3ccccc3)oc2c1 | inactive: 47%

Row | Compound | survival
20 | Cc1cc(NS(=O)(=O)c2ccc(NC(=O)COc3cc(C)c(Br)cc3C(C)C)cc2)no1 | inactive: 40%
21 | CCOc1ccc(N(CC)C(=O)Cn2cnc3sc(C)c(S(=O)(=O)N4CCN(c5ncccn5)CC4)c3c2=O)cc1 | inactive: 78%
22 | Cc1ccc(NC(=O)C2CCCN(S(=O)(=O)c3cccs3)C2)c(C)c1 (stereo unspecified) | inactive: 71%
23 | CCCN1C(C(=O)c2ccccc2)=C(OC(=O)COc2ccc(C)cc2)c2ccccc2S1(=O)=O | inactive: 25%
24 | COC(=O)CN1C(C(=O)c2ccccc2)=C(OC(=O)c2ccccc2)c2ccccc2S1(=O)=O | inactive: 87%
25 | Cc1ccc(NC(=O)CCCn2nc(C)c3c(C)n(-c4ccccc4)nc3c2=O)c(Cl)c1 | inactive: 113%
26 | CCOC(=O)c1cc(NC(=O)c2ccc(F)cc2)c(=O)n2c1oc1ccc(Cl)cc12 | inactive: 133%
27 | CCCSCCCNC(=O)Cn1c(-c2cccs2)cc2ccccc21 | inactive: 73%
28 | Cc1cc(O)c(CN2CCN(c3ccccc3)CC2)c2oc(=O)cc(C)c12 | inactive: 82%
29 | O=C(Nc1c2c(nn1-c1ccc(Cl)cc1)CS(=O)(=O)C2)c1ccc(Br)cc1 | inactive: 64%
30 | COc1cccc(NC(=O)N(Cc2nc3ccccc3c(=O)[nH]2)C2CCCCC2)c1 | inactive: 122%
31 | Cc1nc(-c2ccc(S(=O)(=O)NCc3ccccc3Cl)cc2)co1 | inactive: 80%
32 | CCN1CCN(C(=O)Cn2ncc3c4ccccc4n(Cc4c(C)cc(C)cc4C)c3c2=O)CC1 | inactive: 126%
33 | CCCCN(CCCC)C(=O)c1c[nH]c2ccc(S(=O)(=O)Nc3cccc(Cl)c3C)cc2c1=O | inactive: 70%
34 | CC1=C(C(N)=O)C(c2ccc(C)cc2)n2nc(SCc3ccccc3)nc2N1 (stereo unspecified) | inactive: 128%
35 | COc1ccc(S(=O)(=O)Nc2cccc(-c3ccc(N4CCCC4)nn3)c2)cc1F | inactive: 100%
36 | Cc1ccccc1NC(=O)CSc1ccc(-c2ccccn2)nn1 | inactive: 111%
37 | COc1ccccc1-c1nn(CCC(=O)Nc2ccc(C)cc2)c2nc(C)cc(C)c12 | inactive: 89%
38 | CCN1CCN(CCCNC(=O)Cn2nc(C)n3c(cc4c(OC)cccc43)c2=O)CC1 | inactive: 94%

Row | Compound | survival
39 | CCCCCn1c(CCCNC(=O)c2ccccc2OC)nc2ccccc21 | inactive: 68%
40 | O=C(NCc1ccccc1Cl)C1=Cc2cc(Br)ccc2OC1 | inactive: 121%
41 | COC(=O)c1cc2c(=O)n3ccccc3nc2n(CCN2CCOCC2)c1=N | inactive: 97%
42 | Cc1cccc2c(=O)c(N)c[nH]c12 | inactive: 111%
43 | O=S(=O)(NCCCO)c1ccc2c(c1)Cc1cc(S(=O)(=O)NCCCO)ccc1-2 | inactive: 107%
44 | CC(C)Oc1ccc(CNC(=O)c2cnc3sc(N4CCCC4)nn3c2=O)cc1 | inactive: 67%
45 | CCOC(=O)NNC(=O)C1CCC(C)CC1 (stereo unspecified) | inactive: 64%
46 | Cc1oc2c(c1C(=O)NCc1ccccc1F)C1=NCCN1C=N2 | inactive: 80%
47 | O=C(NCC(c1ccc2c(c1)OCO2)N1CCN(c2ccccc2)CC1)C(=O)Nc1ccccc1F (stereo unspecified) | inactive: 85%
48 | CC(=O)Nc1cccc(-c2nnc(SCC(=O)c3cc([N+](=O)[O-])ccc3Cl)o2)c1 | inactive: 85%
49 | CCN(CC)C(=O)Cn1ncc2c([nH]c3ccccc32)c1=O | inactive: 128%
50 | COc1cccc(N2CCN(C(=O)c3ccc4nc(N5CCC(C)CC5)sc4c3)CC2)c1 | inactive: 42%
51 | CCOC(=O)c1cnc2ccc(C(=O)OC)cc2c1Nc1ccc(OCc2ccccc2Cl)cc1 | inactive: 129%
52 | CCN1C(=O)C2C(c3ccc(F)cc3)NC(CCSC)(C(=O)OC)C2C1=O (stereo unspecified) | inactive: 96%
53 | CCOc1ccc(NC(=O)CC2C(=O)N(c3ccc(OC)cc3)C(=O)N2CCC2=CCCCC2)cc1 (stereo unspecified) | inactive: 69%
54 | COc1ccc(C)cc1NC(=O)N(C(C)C)C1CCN(C(C)=O)CC1 | inactive: 85%
55 | Cc1ccc(N2CCN(c3nc4ccc(C(=O)c5ccccc5)cc4n4cnnc34)CC2)c(C)c1 | inactive: 72%
56 | COc1ccccc1Nc1nn2c(=O)c3ccc(C(=O)NCCc4ccccc4)cc3nc2s1 | inactive: 68%
